{"source": "PubChem BioAssay AID2675", "about": "(National Center for Advancing Translational Sciences (NCATS), 2010)", "note": "About 100 (0.036%) of roughly 280,000 compounds were called active. The shares of active, inactive and inconclusive entries below differ from those in the screen. The call rests on the fitted dose curve; in most records, active means well fitted inhibition curve with a large enough effect in the signal ratio, with a control signal flat (not every such curve was filed as active); inconclusive means small, poorly fitted or top-dose-only effect, or effect the other way, or a change in a side signal; inactive means no such curve, though single readings can be large or run the other way; the % refers to the signal ratio. Where the call is inconclusive, the potency comes from a doubtful curve fit. “Side channel” marks fits to a control or component signal instead of the main read-out. On the % scale 0 is the no-effect control and ±100 the full control effect; potency means the concentration at half of the fitted maximal effect; tags describe the fitted curve by direction and shape or compound fluorescence and quenching."}
{"biological_target": "Muscleblind-like protein 1 (Homo sapiens) (UniProt Q9NR56)", "sequence (Q9NR56 whole entry, looked up)": "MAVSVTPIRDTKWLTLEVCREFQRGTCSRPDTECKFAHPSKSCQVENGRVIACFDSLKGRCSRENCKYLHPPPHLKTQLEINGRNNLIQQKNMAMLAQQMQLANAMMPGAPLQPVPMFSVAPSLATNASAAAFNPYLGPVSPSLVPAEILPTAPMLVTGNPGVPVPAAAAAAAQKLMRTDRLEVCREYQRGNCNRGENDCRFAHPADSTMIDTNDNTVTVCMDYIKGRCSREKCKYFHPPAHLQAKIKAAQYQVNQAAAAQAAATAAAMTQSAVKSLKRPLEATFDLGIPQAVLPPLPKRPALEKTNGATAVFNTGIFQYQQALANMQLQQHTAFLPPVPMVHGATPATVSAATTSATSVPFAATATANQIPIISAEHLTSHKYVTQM", "test": "qHTS Assay for Inhibitors of MBNL1-poly(CUG) RNA binding", "settings": "TR-FRET MBNL1-His/biotin-(CUG)12 binding, 665/545 ratio; activity change, negative = inhibition: at 57.5 µM (top of the series)", "method_in_brief": "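Compounds (final 92 nM to 58 uM) are added to His-tagged MBNL1 and biotin-(CUG)12, then terbium anti-His antibody and streptavidin-XL665 (5 nM final). After 60 min at room temperature, the 665/545 nm ratio is read.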"}
{"smiles": "Cc1cccc(NC(=O)COC(=O)c2cccc3c2C(=O)c2ccccc2C3=O)c1C", "Potency": "inconclusive: 3.16 µM [quencher, side channel, single point]"}
{"smiles": "O=C(CSc1nc(-c2ccccc2)c(-c2ccccc2)o1)Nc1nnc(-c2ccccc2)s1", "activity change, negative = inhibition": "inactive: -7.07%"}
{"smiles": "Cc1cccc(C(=O)NC2CCN(C(=S)NCc3ccco3)CC2)c1", "activity change, negative = inhibition": "inactive: 10.2%"}
{"smiles": "COC(=O)c1cc(C(=O)OCC(=O)N(C)C2CCS(=O)(=O)C2)cc([N+](=O)[O-])c1", "note": "(stereo not given)", "Potency": "inconclusive: 12.6 µM [quencher, side channel, partial curve]"}
{"smiles": "CSc1nnc2ccc(-c3cccs3)nn12", "Potency": "inconclusive: 35.5 µM [quencher, side channel, partial curve]"}
{"smiles": "COc1ccc(/C=N/NC(=O)c2nn(-c3ccccc3)c(=O)c3c(N)scc23)cc1", "Potency": "inconclusive: 14.1 µM [quencher, side channel, partial curve]"}
{"smiles": "CCN1CCN(CCCNC(=O)c2ccc3c(Cl)c4c(nc3c2)CCCC4)CC1", "Potency": "inconclusive: 15.8 µM [quencher, side channel, partial curve]"}
{"smiles": "O=C(CN1C(=O)c2ccccc2C1=O)N1CCN(c2ccccn2)CC1", "Potency": "inconclusive: 20 µM [quencher, side channel, single point]"}
{"smiles": "CC(=O)Nc1ccc(N2CCCC2)cc1", "Potency": "inconclusive: 28.2 µM [quencher, side channel, partial curve]"}
{"smiles": "COc1ccc2c(c1)-c1c(ssc1=S)C(C)(C)N2C(=O)CSC1=NCCS1", "Potency": "inconclusive: 28.2 µM [quencher, side channel, single point]"}
{"smiles": "C=CCN(CC=C)c1cnn(-c2nc3ccccc3[nH]2)c(=O)c1Cl", "Potency": "inconclusive: 14.1 µM [quencher, side channel, partial curve]"}
{"smiles": "COc1cc(/C=N/O)ccc1OCc1ccc(Cl)cc1", "activity change, negative = inhibition": "inactive: 0.548%"}
{"smiles": "O=C(COc1ccccc1)NCc1nnc2c3ccccc3c(-c3ccccc3)nn12", "Potency": "inconclusive: 25.1 µM [fluorescent, side channel, partial curve, poor fit]"}
{"smiles": "O=C(COC(=O)c1cccnc1)Nc1cccc2ccccc12", "Potency": "inconclusive: 31.6 µM [quencher, side channel, single point]"}
{"smiles": "CCc1c(C)c(C#N)c2nc3ccccc3n2c1NCCOC", "Potency": "inconclusive: 15.8 µM [quencher, side channel, partial curve]"}
{"smiles": "c1coc(CSc2ncnc3c2oc2ccccc23)c1", "Potency": "inconclusive: 20 µM [fluorescent, side channel, partial curve]"}
{"smiles": "O=C(Nc1cccc(C(F)(F)F)c1)c1cc(-c2ccco2)on1", "activity change, negative = inhibition": "inactive: -0.286%"}
{"smiles": "COc1ccc2c(CC(=O)OCC(=O)Nc3ccccc3[N+](=O)[O-])coc2c1", "Potency": "inconclusive: 39.8 µM [quencher, side channel, single point]"}
{"smiles": "CC(C)(C)c1ccc(NC(=O)COC(=O)c2ccc([N+](=O)[O-])s2)cc1", "Potency": "inconclusive: 39.8 µM [quencher, single point]"}
{"smiles": "COc1cccc(/C=C2\\SC(=O)N(CC(=O)NC3C=CS(=O)(=O)C3)C2=O)c1", "note": "(stereo not given)", "Potency": "inconclusive: 28.2 µM [quencher, single point]"}
{"smiles": "CCCCN1C(=O)/C(=C2/C=CC=CN2C)SC1=S", "Potency": "inconclusive: 28.2 µM [quencher, side channel, partial curve]"}
{"smiles": "O=C(CCCN1CCC(C(=O)c2ccc(F)cc2)CC1)c1ccc(F)cc1", "activity change, negative = inhibition": "inactive: 2.35%"}
{"smiles": "COc1ccccc1CNc1nc2nc(C)c(C)c(=O)n2[nH]1", "Potency": "inconclusive: 0.0316 µM [fluorescent, side channel, full curve, poor fit]"}
{"smiles": "O=C1NC(=O)/C(=C\\c2ccc(O)cc2O)S1", "Potency": "inconclusive: 25.1 µM [quencher, side channel, partial curve]"}
{"smiles": "CC(CCc1ccccc1)NC(=O)CNc1cccc([N+](=O)[O-])c1", "note": "(stereo not given)", "Potency": "inconclusive: 31.6 µM [quencher, side channel, single point]"}
{"smiles": "COc1cccc(CNS(=O)(=O)c2cc(CN3C(=O)c4cccnc4C3=O)ccc2OC)c1", "Potency": "inconclusive: 8.91 µM [quencher, side channel, partial curve]"}
{"smiles": "O=C1C2C3C=CC(C4CC34)C2C(=O)N1/N=C/c1cccs1", "note": "(stereo not given)", "Potency": "inconclusive: 3.16 µM [quencher, side channel, partial curve]"}
{"smiles": "COCc1cc(C)nc(N/N=C/c2ccc(-c3ccc(C(=O)O)c(Cl)c3)o2)c1C#N", "Potency": "inconclusive: 17.8 µM [quencher, side channel, partial curve]"}
{"smiles": "CN(C)CCNc1oc(COc2ccc(Cl)cc2Cl)nc1C#N", "activity change, negative = inhibition": "inactive: -6.19%"}
{"smiles": "Cc1cc(NC(=O)c2cc([N+](=O)[O-])cc([N+](=O)[O-])c2C)no1", "Potency": "inconclusive: 12.6 µM [quencher, side channel, partial curve]"}
{"smiles": "CCNC(=S)/N=C(/Nc1ccc(OC)cc1)Nc1nc(C)cc(C)n1", "activity change, negative = inhibition": "inactive: -8.71%"}
{"smiles": "CCCCN(CC)CCNC(=O)C1CCCN(S(=O)(=O)c2cccc3nsnc23)C1", "note": "(stereo not given)", "Potency": "inconclusive: 12.6 µM [quencher, partial curve]"}
{"smiles": "O=C(c1ccco1)N1CCN(c2ccc([N+](=O)[O-])cc2F)CC1", "Potency": "inconclusive: 12.6 µM [quencher, side channel, partial curve]"}
{"smiles": "Cc1cc(NC(=O)c2cc([N+](=O)[O-])ccc2Cl)no1", "Potency": "inconclusive: 15.8 µM [quencher, side channel, partial curve]"}
{"smiles": "O=C1c2cccc3cccc(c23)C(=O)N1c1nncs1", "Potency": "inconclusive: 7.94 µM [quencher, side channel, partial curve]"}
{"smiles": "Cc1cccc(C)c1N(CC(=O)N1CCN(C)CC1)S(C)(=O)=O", "activity change, negative = inhibition": "inactive: -1.02%"}
{"smiles": "Oc1ccccc1C(Nc1nccs1)c1ccc2cccnc2c1O", "note": "(stereo not given)", "activity change, negative = inhibition": "inactive: 6.53%"}
{"smiles": "CCN(CCNc1ccc(Cl)cc1[N+](=O)[O-])C(=O)c1cc([N+](=O)[O-])c(N(C)C)cc1OC", "Potency": "inconclusive: 14.1 µM [quencher, side channel, partial curve]"}
{"smiles": "CCCC(=O)NC1C2CC3CC(C2)CC1C3", "note": "(stereo not given)", "activity change, negative = inhibition": "inactive: 3.64%"}
{"smiles": "COc1ccc(NC(=O)CSc2nc(N)c3cc4c(nc3n2)CCCC4)cc1", "Potency": "inconclusive: 8.91 µM [quencher, side channel, single point]"}
{"smiles": "COC(=O)CN(c1ccc(C)cc1)S(=O)(=O)c1ccc2c(c1)n(C)c(=O)c(=O)n2C", "activity change, negative = inhibition": "inactive: 11.8%"}
{"smiles": "O=C(O)c1cccc(N/N=C/c2cccs2)c1", "Potency": "inconclusive: 39.8 µM [quencher, side channel, single point]"}
{"smiles": "CCOC(=O)N1CCN(c2c(-c3ccc(C)c(C)c3)c(=O)c2=O)CC1", "Potency": "inconclusive: 15.8 µM [quencher, side channel, partial curve]"}
{"smiles": "Nc1ccc(N2CCN(CCCCN3C(=O)C4CCCN4C3=O)CC2)cc1", "note": "(stereo not given)", "Potency": "inconclusive: 79.4 µM [inhibitor, single point]"}
{"smiles": "O=C(CNc1cccc([N+](=O)[O-])c1)NCCCc1ccccc1", "Potency": "inconclusive: 14.1 µM [quencher, side channel, partial curve]"}
{"smiles": "CC(C)(C)NC(=O)CSc1nncn1NCc1c(Cl)cccc1Cl", "activity change, negative = inhibition": "inactive: -2.58%"}
{"smiles": "COc1cc([N+](=O)[O-])cc(/C=N/NC(=O)Cn2nc(C)cc2C)c1O", "Potency": "inconclusive: 12.6 µM [quencher, side channel, partial curve]"}
{"smiles": "C/C(=N\\Nc1ccc([N+](=O)[O-])cc1)c1ccc(N)cc1", "Potency": "inconclusive: 15.8 µM [quencher, side channel, partial curve]"}
{"smiles": "O=C(/C=C\\c1cccs1)c1c(O)ccc2ccc(=O)oc12", "Potency": "inconclusive: 12.6 µM [quencher, side channel, partial curve]"}
{"smiles": "COCCCN(C(=S)Nc1cccc(Cl)c1)C(C)c1ccncc1", "note": "(stereo not given)", "Potency": "inconclusive: 158 µM [inhibitor, single point]"}
{"smiles": "O=C(CN1CCN(Cc2ccccc2)CC1)Nc1ccc(S(=O)(=O)N2CCOCC2)cc1", "Potency": "inconclusive: 17.8 µM [quencher, side channel, single point]"}
{"smiles": "CC(/C=N/NC(=O)c1ccncc1)=C\\c1ccco1", "Potency": "inconclusive: 15.8 µM [quencher, side channel, partial curve]"}
{"smiles": "CN1CCc2cc3c(c4c2[C@H]1[C@H](O)c1ccccc1-4)OCO3", "Potency": "inconclusive: 17.8 µM [quencher, side channel, partial curve]"}
{"smiles": "CN1CCN(c2ccc([N+](=O)[O-])cc2NC(=O)c2ccccc2)CC1", "Potency": "inconclusive: 28.2 µM [quencher, side channel, partial curve]"}
{"smiles": "Cn1ncc2c(Nc3ccc4ccccc4c3)ncnc21", "Potency": "inconclusive: 14.1 µM [quencher, side channel, partial curve]"}
{"smiles": "CCC1CCc2c(sc(NC(=O)C3c4ccccc4Oc4ccccc43)c2C(N)=O)C1", "note": "(stereo not given)", "Potency": "inconclusive: 1.26 µM [fluorescent, side channel, partial curve]"}
{"smiles": "CN(CCNC(=O)CCCOc1cc(=O)n(C)c2ccccc12)Cc1ccccc1", "activity change, negative = inhibition": "inactive: -4.99%"}
{"smiles": "COc1ccnc(NCc2cccc(C(F)(F)F)c2)c1C#N", "Potency": "inconclusive: 31.6 µM [fluorescent, side channel, single point]"}
{"smiles": "CCOC(=O)c1c(C)oc2c1C(=O)c1ccccc1C2=O", "Potency": "inconclusive: 5.62 µM [quencher, side channel, partial curve]"}
{"smiles": "CC(=O)c1cnc(-c2ccccc2Cl)s1", "Potency": "inconclusive: 25.1 µM [quencher, partial curve]"}
